Out of some 280,000 compounds screened, about 1,100 (0.39%) were called active. Inconclusive means that the source gave no clear call. Such entries were picked first, then a sample of the others. The call rests on the fitted dose curve; in most records, active means well fitted inhibition curve with a large enough effect; inconclusive means small, poorly fitted or top-dose-only effect, or effect the other way; inactive means flat fitted curve, though single readings scatter. Potencies of inconclusive entries are left out as doubtful fits.
What follows are molecules tested against Microtubule-associated protein tau (Homo sapiens) (UniProt P10636) (assay: qHTS for Inhibitors of Tau Fibril Formation, Fluorescence Polarization). Conditions: K18 P301L tau heparin fibrillization, Alexa594 FP, 6 h; series mostly up to 57.7 µM.
Sequence of UniProt P10636 (P10636 whole entry, looked up): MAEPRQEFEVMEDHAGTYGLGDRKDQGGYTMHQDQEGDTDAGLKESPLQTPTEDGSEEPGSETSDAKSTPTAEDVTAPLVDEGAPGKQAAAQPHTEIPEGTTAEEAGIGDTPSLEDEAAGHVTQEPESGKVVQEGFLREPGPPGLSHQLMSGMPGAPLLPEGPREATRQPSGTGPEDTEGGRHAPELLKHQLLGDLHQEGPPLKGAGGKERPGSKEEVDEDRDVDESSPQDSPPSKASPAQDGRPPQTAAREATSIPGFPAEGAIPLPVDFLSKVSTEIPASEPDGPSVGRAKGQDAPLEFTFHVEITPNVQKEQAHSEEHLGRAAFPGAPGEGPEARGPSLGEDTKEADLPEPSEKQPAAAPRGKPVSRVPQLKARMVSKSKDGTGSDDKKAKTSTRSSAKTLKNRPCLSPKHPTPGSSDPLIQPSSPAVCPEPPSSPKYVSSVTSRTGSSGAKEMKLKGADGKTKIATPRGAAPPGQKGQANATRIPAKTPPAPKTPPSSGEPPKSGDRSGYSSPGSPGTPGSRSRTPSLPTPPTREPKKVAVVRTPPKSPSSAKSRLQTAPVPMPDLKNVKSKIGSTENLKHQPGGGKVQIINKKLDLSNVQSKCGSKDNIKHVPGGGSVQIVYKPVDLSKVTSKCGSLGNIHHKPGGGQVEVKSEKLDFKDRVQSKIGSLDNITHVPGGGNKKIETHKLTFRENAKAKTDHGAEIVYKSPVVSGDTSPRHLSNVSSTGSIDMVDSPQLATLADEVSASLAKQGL
Summary of the method: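 FP of Alexa 594-tau after heparin (20 uM) induction. Substrate: human K18 P301L, 15 uM unlabeled, 0.24 uM labeled. Buffer 100 mM sodium acetate pH 7. 6 hr, 37 C.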
Clc1ccc(OCc2nc3ccccc3n2Cc2ccccc2)c(Cl)c1 was tested, and the Potency was “inactive”. In the case of Cc1cc(=O)n(Cc2cccc(F)c2)c2c1c(C)nn2-c1cccc(F)c1, the Potency is reported as inconclusive [inhibitor, full curve, poor fit]. In the case of O=C(C1CCC(CNS(=O)(=O)c2cccs2)CC1)N1CCCCC1 (configuration not stated), the Potency is reported as “inactive”. With COc1ccc(/C=N/NC(=O)c2cccnc2)cc1CSc1nc2ccccc2s1 the Potency was inconclusive [inhibitor, full curve]. For CCOC(=O)CSc1nc2ccccc2c(=O)[nH]1, the Potency was “inactive”. In the case of COc1cc(C2c3c(-c4ccc(C)cc4)n[nH]c3C(=O)N2c2ccc(F)cc2)ccc1O (configuration not stated), the Potency is reported as inconclusive [inhibitor, partial curve]. With C=CCOc1ccc(-c2nc3c(c(=O)[nH]c(=O)n3CCCC)n2C)cc1OC the Potency was “inactive”. With CCc1ccccc1NC(=O)C1CCN(C(=O)N2CC(C)Oc3ccc(Cl)cc32)CC1 (configuration not stated) the Potency was inconclusive [inhibitor, partial curve]. With O=C(Nc1ccc(Br)cc1)c1ccccc1CC[N+](=O)[O-] the Potency was inconclusive [inhibitor, single point]. In the case of COc1ccc(C(=O)c2ccc(O)cc2)c(O)c1O, the Potency is reported as inconclusive [inhibitor, partial curve]. With CCNc1ccc(Br)cc(C(=O)/C=C/c2ccc3c(c2)OCO3)c1=O the Potency was inconclusive [inhibitor, partial curve]. For CCOc1ccc(N(CC(=O)Nc2ccccc2CC)S(=O)(=O)c2c(C)[nH]c(=O)[nH]c2=O)cc1, the Potency was “inactive”. With Cc1ccc(NC(=O)c2sc3nc[nH]c(=O)c3c2C)cc1Cl the Potency was inconclusive [inhibitor, partial curve, poor fit]. In the case of Cc1ccc(S(=O)(=O)Nc2ccc(-c3csc(-c4ccccc4)n3)cc2)cc1, the Potency is reported as inconclusive [inhibitor, partial curve]. In the case of Cc1ccc(/C=c2/sc3n(c2=O)CCCN=3)o1, the Potency is reported as inconclusive [inhibitor, single point]. With O=C(Nc1cccc(-c2nnc(-c3ccccc3)o2)c1)c1ccc(Br)o1 the Potency was inconclusive [inhibitor, single point]. O=C1CC(/C=C/c2ccco2)=Nc2ccccc2N1 was tested, and the Potency was “inactive”. In the case of Cc1cccc(NC(=S)NNC(=S)NC2CCCCC2)c1C, the Potency is reported as inconclusive [inhibitor, partial curve, poor fit]. With O=C(NCCCn1ccnc1)Nc1ccc(Cl)cc1Cl the Potency was inconclusive [inhibitor, full curve, poor fit]. For CC1=C(C(=O)Nc2ccc(Cl)cc2)C(C(C)C)n2nc(SCc3ccc(Cl)cc3)nc2N1 (configuration not stated), the Potency was inconclusive [inhibitor, partial curve]. COc1ccc([N+](=O)[O-])cc1NC(=O)c1ccc(N(Cc2ccccc2Cl)S(C)(=O)=O)cc1 was tested, and the Potency was inconclusive [inhibitor, full curve]. In the case of Cc1nn(C)cc1/C=N/NC(=S)Nc1ccc(Cl)cc1Cl, the Potency is reported as “inactive”. In the case of NC1=NC(=O)C(Cc2ccccc2)S1 (configuration not stated), the Potency is reported as “inactive”. O=C(Cn1nc(C(F)(F)F)c2c1CCC2)Nc1ccc(Cl)cc1 was tested, and the Potency was inconclusive [inhibitor, single point]. For COC(=O)c1cc(NC(=O)c2sc3ncn(Cc4cccc(F)c4)c(=O)c3c2C)cc(C(=O)OC)c1, the Potency was inconclusive [inhibitor, partial curve]. O=C(NCc1ccccc1Cl)c1cc(=O)[nH]c2ccc(S(=O)(=O)N3CCCCC3)cc12 was tested, and the Potency was “inactive”. Cc1ccc(N2C(=O)[C@@H]3[C@H](C2=O)[C@H]2C=CC=NN2[C@@H]3C(=O)Nc2ccc(Cl)cc2)cc1 was tested, and the Potency was “inactive”. In the case of CCOC(=O)c1c(O)c(O)c(C(=O)OCC)n1-c1ccccc1, the Potency is reported as inconclusive [inhibitor, single point]. O=C(NCc1cccs1)c1cccc(Nc2nc3ccc(Br)cc3[nH]2)c1 was tested, and the Potency was inconclusive [inhibitor, single point]. CC(=O)c1ccc(NC(=O)Nc2ccc([N+](=O)[O-])cc2)cc1 was tested, and the Potency was inconclusive [inhibitor, single point]. For NC(=O)[C@@H]1CC2(CC(c3cccc(NC(=O)CC(c4ccccc4)c4ccccc4)c3)=NO2)CN1C(=O)COc1ccc(Cl)cc1 (some centres not stated), the Potency was inconclusive [inhibitor, single point]. For c1csc(-c2noc(CN3CCc4sccc4C3)n2)c1, the Potency was “inactive”. With COC(=O)c1cc(=O)n(-c2ccc(F)cc2)c(=Nc2ccc(F)cc2)s1 the Potency was inconclusive [inhibitor, partial curve]. With S=C(Nc1ccc(Cl)cc1)Nc1cccc2cnccc12 the Potency was inconclusive [inhibitor, partial curve]. With COc1cccc(-c2cc(C(=O)Nc3ccc4c(c3)OCCO4)c3ccccc3n2)c1 the Potency was inconclusive [inhibitor, full curve, poor fit]. In the case of Cc1ccccc1-c1nc(CS(=O)(=O)CC(=O)Nc2cc(Cl)cc(Cl)c2)c(C)o1, the Potency is reported as inconclusive [inhibitor, partial curve]. O=C(CSc1ncc(-c2ccccc2)[nH]1)Nc1cccc(C(F)(F)F)c1 was tested, and the Potency was inconclusive [inhibitor, single point]. With CCOC(=O)CNC(=O)O[C@H]1C(=O)c2ccc(OC)cc2O[C@@H]1c1ccc2c(c1)OCO2 the Potency was inconclusive [inhibitor, single point]. O=Cc1[nH]c2ccccc2c1N(C(=O)CCl)c1ccccc1 was tested, and the Potency was inconclusive [inhibitor, single point]. For Cc1ccc2nc(-c3cccnc3SCC(=O)N3c4ccccc4CC3C)[nH]c2c1 (configuration not stated), the Potency was inconclusive [inhibitor, single point]. With O/N=C/c1cc(Cl)ccc1OCc1ccccc1Cl the Potency was inconclusive [inhibitor, single point]. C=CC1=C2C=C(C3CC3)N(CCCCO)C=C2C(=O)C(C)(OC(=O)c2ccco2)C1=O (configuration not stated) was tested, and the Potency was inconclusive [inhibitor, single point]. C=CCSC1=C(C#N)C(c2ccccc2C)CC(=O)N1 (configuration not stated) was tested, and the Potency was “inactive”. For CCn1nc(C)c(CCN(C)C(=O)Nc2cc(C)cc(C)c2)c1C, the Potency was “inactive”. In the case of O=S1(=O)C=C(SCc2ccc(Cl)c(Cl)c2)Nc2ccccc21, the Potency is reported as inconclusive [inhibitor, partial curve]. In the case of O=C(N/N=C/c1c(-c2ccccc2)[nH]c2ccccc12)c1cccnc1, the Potency is reported as “inactive”. With CCN(CC)c1ccc(NC(=O)c2ccco2)cc1 the Potency was “inactive”. For O=C(NN1C(=O)/C(=C/C=C/c2ccco2)SC1=S)c1ccncc1, the Potency was inconclusive [inhibitor, single point]. In the case of O=[N+]([O-])c1cccc(C(=S)N2CCN(c3ccc(F)cc3)CC2)c1, the Potency is reported as “inactive”. Cc1ccc(NC(=O)Cn2c(=O)n(Cc3ccc4c(c3)OCO4)c(=O)c3ccccc32)c(C)c1 was tested, and the Potency was inconclusive [inhibitor, single point]. In the case of O=C(Nc1cc(Cl)cc(Cl)c1)c1ccc(F)c(S(=O)(=O)NC2CCCCC2)c1, the Potency is reported as active: 7.08 µM. In the case of CCc1cc(SC#N)ccc1N, the Potency is reported as inconclusive [inhibitor, partial curve]. For O=C(NCCS(=O)(=O)N1CCN(c2ccc(F)cc2)CC1)C1CC(=O)N(c2ccc(F)cc2)C1 (configuration not stated), the Potency was inconclusive [inhibitor, single point]. For CCCSc1nnc(NC(=O)Nc2ccc(C)cc2)s1, the Potency was inconclusive [inhibitor, partial curve, poor fit]. In the case of CNC(=O)c1cccn1-c1ccsc1C(=O)OC, the Potency is reported as inconclusive [inhibitor, single point]. CS(=O)(=O)N1CCCc2cc(C(=O)Nc3cccc(C(F)(F)F)c3)ccc21 was tested, and the Potency was inconclusive [inhibitor, partial curve]. In the case of C=C[C@H]1CCC=C2C(=O)CCC[C@@H]21, the Potency is reported as inconclusive [inhibitor, full curve, poor fit]. In the case of O=C(NCc1ccco1)c1ccccc1Br, the Potency is reported as “inactive”. For COc1cc(-c2nc(-c3cccc(Cl)c3)c(-c3ccccc3)[nH]2)cc(OC)c1OC, the Potency was inconclusive [activator, partial curve]. For Cn1c(Cl)c(/C=N/OC(=O)c2cccc(Cl)c2)c2ccccc21, the Potency was inconclusive [inhibitor, single point]. With O=C(CNc1cccc(C(F)(F)F)c1)N/N=C/c1cccc(Br)c1 the Potency was inconclusive [inhibitor, partial curve, poor fit]. For O=C(CC1N=C2c3ccccc3N=C(SCc3cccc(F)c3)N2C1=O)NCc1ccc2c(c1)OCO2 (configuration not stated), the Potency was “inactive”. Cc1c(-c2nc(N)nc(Nc3ccccc3F)n2)oc2ccccc12 was tested, and the Potency was inconclusive [inhibitor, single point]. With O=C(O)c1ccc(NC(=O)c2cn(-c3ccccc3)nc2-c2ccc(Br)cc2)cc1 the Potency was inconclusive [inhibitor, single point]. For Cc1ccc(NC(=O)CCNS(=O)(=O)c2cc(Br)cnc2N)cc1Cl, the Potency was inconclusive [inhibitor, partial curve]. For CC(C)CNC(=O)c1cccc(NC(=O)c2ccc(NC(=O)c3ccco3)cc2)c1, the Potency was inconclusive [inhibitor, single point]. In the case of CCN(CC)c1ccc(NC(=O)c2cc(Cl)ccc2OC)cc1, the Potency is reported as inconclusive [activator, partial curve].

From PubChem BioAssay AID1468 (National Center for Advancing Translational Sciences (NCATS), 2008)
Further: nearly all actives have a fitted effect of over 55% in size.
Potency means the concentration at half of the fitted maximal effect; tags describe the fitted curve by direction and shape.
